Experimental data as given in publication PMC7819943, “Rice protein-binding microarrays: a tool to detect cis-acting elements near promoter regions in rice”.
This is one part of the list.

target: T1, OsWOX13 (Oryza sativa, UniProt Q5QMM3 1-267); assay: protein-binding microarray (RPBM); PBS, 2% BSA, 51.3 ng/ul salmon testes DNA, 50 uM zinc acetate, 200 nM TF, 25 C, 1 h; high values mean tight binding; settings: protein: recombinant; tags: N-terminal polyhistidine and DsRed monomer fusion (pET32a); label: CyDye5-dUTP incorporated in the synthesized complementary strand; 3' TTTTT single-stranded linker to array surface; dsDNA, one strand shown
T1 sequence: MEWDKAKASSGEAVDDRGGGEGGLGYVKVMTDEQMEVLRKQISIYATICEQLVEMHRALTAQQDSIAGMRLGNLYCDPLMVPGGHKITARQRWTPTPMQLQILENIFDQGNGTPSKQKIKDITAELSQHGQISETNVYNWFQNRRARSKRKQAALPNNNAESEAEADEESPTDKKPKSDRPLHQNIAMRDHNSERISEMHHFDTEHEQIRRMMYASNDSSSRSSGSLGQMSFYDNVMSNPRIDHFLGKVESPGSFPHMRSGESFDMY
Outline: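 Transcription factors, each fused N-terminally to a polyhistidine tag and DsRed, were expressed in E. coli BL21-CodonPlus and purified on Ni–NTA. A custom Agilent array was made double-stranded by primer extension with Cy5-dUTP and blocked with 2% BSA. It was incubated with 200 nM protein in PBS, 2% BSA, salmon testes DNA and 50 µM zinc acetate at 25 °C for 1 h, then washed. The binding signal is per-feature fluorescence intensity (arbitrary units) read on an Axon 4000B scanner.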

Sequence | binding signal
CTAAACACGTTGATGGGCCTGAATGGAGGAAGCCCATCGACGGAGTCACCTAGTGCAG | 3790 fluorescence intensity (a.u.)
GGAATCAATCGAGAGATTAGAGTGTACGTGAGAGCTAGCGCGGAGTCACCTAGTGCAG | 4160 fluorescence intensity (a.u.)
CAGAAACTGAAATACCAATTGATTCTTCCAATTCCCTGAACGGAGTCACCTAGTGCAG | 6740 fluorescence intensity (a.u.)
CCTGATGATATATACTTGTTAAACTGCAGCACTCGAATCACGGAGTCACCTAGTGCAG | 13000 fluorescence intensity (a.u.)
TTCAAGCTTAATTTTAAGATTGATTTTGACATATTTTCAACGGAGTCACCTAGTGCAG | 9580 fluorescence intensity (a.u.)
GGGGTTGGAAATGATGATCACCATCACTACAACATGTCATCGGAGTCACCTAGTGCAG | 3160 fluorescence intensity (a.u.)
GTTATGATTGGTTGAGACGAGAGAATAAGTGAAGAAATTGCGGAGTCACCTAGTGCAG | 40300 fluorescence intensity (a.u.)
CAAATGTAATTTCGCACTATTCTTATCTAATGTTTGACATCGGAGTCACCTAGTGCAG | 4370 fluorescence intensity (a.u.)
GACTTCATAATTAATACTTTAATTAAAACACTTATTCTACCGGAGTCACCTAGTGCAG | 20000 fluorescence intensity (a.u.)
CTGTTGACATATAATTCTACACCCTGAAATGGTAAAACTGCGGAGTCACCTAGTGCAG | 4860 fluorescence intensity (a.u.)
TTAACAGGGACATTGATCCTTGATTAATAATGCTGATTAGCGGAGTCACCTAGTGCAG | 14700 fluorescence intensity (a.u.)
GGTGACCGTTAAACGCAGATTAAATTTGATGAATTAAAGCCGGAGTCACCTAGTGCAG | 6840 fluorescence intensity (a.u.)
AATCAATCTACAGCAACAAATCAAAATCTCTCGGTTTAGCCGGAGTCACCTAGTGCAG | 15700 fluorescence intensity (a.u.)
TATTCCATCCGTTTCAATCATATTATAAGTTGCTTTGATTCGGAGTCACCTAGTGCAG | 10300 fluorescence intensity (a.u.)
TGCAACTATGATTATCCGTATCCAACTTTGATTTTCCGTTCGGAGTCACCTAGTGCAG | 6010 fluorescence intensity (a.u.)
CGGGCTTCTTGATTTGCGGATTGTTGTTGTGGATCGCCAGCGGAGTCACCTAGTGCAG | 5040 fluorescence intensity (a.u.)
TTAACAGTCAATCCCTTTAATTTAGATTTAGTATGATCTGCGGAGTCACCTAGTGCAG | 41700 fluorescence intensity (a.u.)
TGTAATTTCAGTGCTAATTTGGAAGGGAACTCAGCTAATCCGGAGTCACCTAGTGCAG | 19200 fluorescence intensity (a.u.)
AACAAATGTTTTATTAATTATTTAATCTTTTGGATTTAATCGGAGTCACCTAGTGCAG | 3320 fluorescence intensity (a.u.)
TTACCATCAATCTCAATCTTTCGCCGTTTAATTTCCTCACCGGAGTCACCTAGTGCAG | 7580 fluorescence intensity (a.u.)
GCCATAATCAATTACTGAAGTAATCCACTCTCAATTGAACCGGAGTCACCTAGTGCAG | 39800 fluorescence intensity (a.u.)

Sequence | binding signal
AGGTCGTTGATTGCTTAAGTTTCAATCTAATGCTAAATTTCGGAGTCACCTAGTGCAG | 10700 fluorescence intensity (a.u.)
AGCTCAATTTAGTCTTTCAGGTTTTATTTTGTCCACGTAGCGGAGTCACCTAGTGCAG | 3620 fluorescence intensity (a.u.)
TCATTAATTAAGAGGTAACAAGTACAACATATCACAGCTACGGAGTCACCTAGTGCAG | 11400 fluorescence intensity (a.u.)
GATCAATCATTTGCTGAGCTCGTGAATTCTGTCTGGTTCACGGAGTCACCTAGTGCAG | 24300 fluorescence intensity (a.u.)
ATAAAATAAATGATAATTACATAAATTTCTTTAAATAAGACGGAGTCACCTAGTGCAG | 10900 fluorescence intensity (a.u.)
CCAACAGATTCATTATTGTTCAATCTTAGTCATGCATTTACGGAGTCACCTAGTGCAG | 3220 fluorescence intensity (a.u.)
GAAATATGTGACAGGTAGAATTTTCTAAAGTTCTACAGAACGGAGTCACCTAGTGCAG | 3150 fluorescence intensity (a.u.)
TCTATTACTATTAATTTAAACATATGTTTCTTCGAATTTACGGAGTCACCTAGTGCAG | 3980 fluorescence intensity (a.u.)
GATAACTGGTGTGGAGGCTGCGGCGTGGGTGGTAAAGCACCGGAGTCACCTAGTGCAG | 3220 fluorescence intensity (a.u.)
AAAATTTTCCTACGTGATTGTTTGAATCATAGGAATAGCTCGGAGTCACCTAGTGCAG | 19900 fluorescence intensity (a.u.)
TTAATTAATTTCTCTAATGATTCTCAATCTTGTGTTCTTCCGGAGTCACCTAGTGCAG | 28300 fluorescence intensity (a.u.)
ATCGATCATTGACAGAAATCACCCATACCTTGAGATTCTTCGGAGTCACCTAGTGCAG | 23400 fluorescence intensity (a.u.)
GAGATTACAAATGAATAAATTAGCTATCATAAAGTTGAAACGGAGTCACCTAGTGCAG | 5150 fluorescence intensity (a.u.)
AGCTTATAGTCAATTATTGTACTTGCTCTAAGTATAGGCTCGGAGTCACCTAGTGCAG | 12200 fluorescence intensity (a.u.)
TTAATCGATGATTGATAATACGTGAACATGCTATATTAGTCGGAGTCACCTAGTGCAG | 45100 fluorescence intensity (a.u.)
GTAGCAAATTTACAAATTTGCAGGGCTAGCTGTTGCGGTGCGGAGTCACCTAGTGCAG | 11100 fluorescence intensity (a.u.)
ATCCAAACATCTTATTGTGATTGGGAATGGTATATGTTTCCGGAGTCACCTAGTGCAG | 9830 fluorescence intensity (a.u.)
ACATTACTAATTGAGAGGAACCGACGAATTGTACCTGAAACGGAGTCACCTAGTGCAG | 11100 fluorescence intensity (a.u.)
TCATCTAAACAGATTAGGATCTTATTTGCACTGGTTTTGACGGAGTCACCTAGTGCAG | 8020 fluorescence intensity (a.u.)
AAAATAATTAATACTTAATTAATAATTCTGATCCTAAGTACGGAGTCACCTAGTGCAG | 42900 fluorescence intensity (a.u.)
TGAAACAATTAACCATCAGAAATTAAACATGCATGCATGACGGAGTCACCTAGTGCAG | 9260 fluorescence intensity (a.u.)

Sequence | binding signal
ATTAATAGAGGTTGATTTTATATAAAACAAATGATGTGCCCGGAGTCACCTAGTGCAG | 25800 fluorescence intensity (a.u.)
TAGATTAGCGAGCAAATTTACACTGTTTTAAATGTTGTATCGGAGTCACCTAGTGCAG | 6460 fluorescence intensity (a.u.)
TATAGGTCCAATCTAATTTGTATCCCTTGACCGCAATACCCGGAGTCACCTAGTGCAG | 7590 fluorescence intensity (a.u.)
TTGCAGTAGTATGATCCAATTAAACCAAATTATAATGGCACGGAGTCACCTAGTGCAG | 3140 fluorescence intensity (a.u.)
ATAATTGTAAACCACAAATCTAGAATTCAAAGCCGGTTTCCGGAGTCACCTAGTGCAG | 4130 fluorescence intensity (a.u.)
ATTAATTCGTCAGATAGATAGATATATATACGCGTTCATCCGGAGTCACCTAGTGCAG | 13700 fluorescence intensity (a.u.)
GCTACATTTGCCAATCTTTATCTCCCCACATAAATGACTTCGGAGTCACCTAGTGCAG | 3900 fluorescence intensity (a.u.)
CCTGATATAGACTGCTTTCTGGTTGATCTGTTAGTAGCGGCGGAGTCACCTAGTGCAG | 25300 fluorescence intensity (a.u.)
TGCATTGATAGATAGAGAGATGGAGAGATAGTGGATAGCTCGGAGTCACCTAGTGCAG | 28800 fluorescence intensity (a.u.)
TCTTCCTCTGCGTGGGCCGGGGCGGAGGGAGGGAGGGGAACGGAGTCACCTAGTGCAG | 10300 fluorescence intensity (a.u.)
ATTATTGTTTATTTTGTTATGATTTATTTTATCATTACGTCGGAGTCACCTAGTGCAG | 10700 fluorescence intensity (a.u.)
ATGTGAATAATTTAAGGCAATGCATTTATATGCCGATGGGCGGAGTCACCTAGTGCAG | 3630 fluorescence intensity (a.u.)
AAAACAATATAATTTAATATACAAACTTCAAATGTACCATCGGAGTCACCTAGTGCAG | 5180 fluorescence intensity (a.u.)
TCTTGATAACAATCAGCGAGGGATCAACAATGAATATAATCGGAGTCACCTAGTGCAG | 3320 fluorescence intensity (a.u.)
GTAATTAAGGCCTTTCTCAGTAAATTATTGCAATGCTCACCGGAGTCACCTAGTGCAG | 3560 fluorescence intensity (a.u.)
ATTAATATTTCTAATATTAATTTGAGATATATCAAGATATCGGAGTCACCTAGTGCAG | 4250 fluorescence intensity (a.u.)
ACAAGATAGATTAATATGAAATATAACACTTCATAAATATCGGAGTCACCTAGTGCAG | 6010 fluorescence intensity (a.u.)
ATGTAAATTTTGTGAACAATGTTATTACCACTTTGTCGGACGGAGTCACCTAGTGCAG | 6010 fluorescence intensity (a.u.)
GGTGACAGGCAGTCCACATCCTTATCGCTCTTTGCTAGTTCGGAGTCACCTAGTGCAG | 11700 fluorescence intensity (a.u.)
TGGGCCGCACGTAATTGAAATCCAATTCTGGCCCAAACTACGGAGTCACCTAGTGCAG | 7460 fluorescence intensity (a.u.)
GATTAATTAGTCTCTCTGATCGCATCGAACTTGTAATAATCGGAGTCACCTAGTGCAG | 20000 fluorescence intensity (a.u.)

Sequence | binding signal
CCTAGGCAGATAATGTTGATTACGGTAACAGGTTGTGTTACGGAGTCACCTAGTGCAG | 4720 fluorescence intensity (a.u.)
ACTATTGGAGTATGGTGCGTGATTGTCCACAATTTATTCACGGAGTCACCTAGTGCAG | 3150 fluorescence intensity (a.u.)
GTGAAATTGTAAATTCATTTGAGGTAAATGTCCATGCACACGGAGTCACCTAGTGCAG | 11100 fluorescence intensity (a.u.)
ATAAAATAAAATAATTTATTTGTAAAACTTTTATATATGTCGGAGTCACCTAGTGCAG | 8100 fluorescence intensity (a.u.)
ATTAATCACACACTAATGGATTGCTCCGTTTTCCGTGCAGCGGAGTCACCTAGTGCAG | 21800 fluorescence intensity (a.u.)
ATGATTTGTGATATTATTTGAGGTTACAAGCGGATGAATTCGGAGTCACCTAGTGCAG | 15400 fluorescence intensity (a.u.)
TTGTGGTCAATTTCAATATAATTGAGTTATATATTCGATGCGGAGTCACCTAGTGCAG | 15900 fluorescence intensity (a.u.)
GGTGGTGTCTATTTACTAATCGTCCCCTCTCCTTCACTCTCGGAGTCACCTAGTGCAG | 3190 fluorescence intensity (a.u.)
AAAACAAATTACATAATTCGTCAGTAAACCGCGAGATGAACGGAGTCACCTAGTGCAG | 8940 fluorescence intensity (a.u.)
ACTGATTGAAAGGCCCTTCAAGTAGCACTTTCAAATTCAGCGGAGTCACCTAGTGCAG | 43600 fluorescence intensity (a.u.)
CGCTGATTGGGTTGGGTCGGGTTAGCTTTGGTTTCAATGCCGGAGTCACCTAGTGCAG | 50800 fluorescence intensity (a.u.)
TTCATTAATTTGTAAAATGGCTGAAGGTCCCGTCCACTGCCGGAGTCACCTAGTGCAG | 36600 fluorescence intensity (a.u.)
GATCGGTTAGTCTCGTTAATTTCGTCATCAGCATTATACTCGGAGTCACCTAGTGCAG | 4500 fluorescence intensity (a.u.)
AAAGAAGGATAGCCGATGATTGACTGGATGGGTTCACAATCGGAGTCACCTAGTGCAG | 28800 fluorescence intensity (a.u.)
AGGGTTAAATTGTCAAAATTTGTGCGACACAAACACACTCCGGAGTCACCTAGTGCAG | 10900 fluorescence intensity (a.u.)
CGTATGATTTCCAAATACAAACAATGTGAGACGCACTTGACGGAGTCACCTAGTGCAG | 3540 fluorescence intensity (a.u.)
GTTGATTTATTTTAGGGGTATAAAAGAAGGGCTATGGTGTCGGAGTCACCTAGTGCAG | 39900 fluorescence intensity (a.u.)
TTGATGCAGTGATGATTGCATAGTTTCAAGGGACAAGGCCCGGAGTCACCTAGTGCAG | 8660 fluorescence intensity (a.u.)
ACATCATTGACATAATATGATTTAACAACAAACAATTTAGCGGAGTCACCTAGTGCAG | 34800 fluorescence intensity (a.u.)
TTCGGAATTTTGGGAATGAGATTAGATTTGGCTCCCATCGCGGAGTCACCTAGTGCAG | 3190 fluorescence intensity (a.u.)
CTTAATTAATAGTAGAAGATATCAACTGATTCGCTGGAAGCGGAGTCACCTAGTGCAG | 21900 fluorescence intensity (a.u.)
